Reference: article PMC3469516 (Molecular Biology of the Cell, 2012)

Target: endogenous protein kinase Cα (PKCα) (mouse (endogenous in MEFs), UniProt P20444 1-672)
Experiment: co-IP

B1: endogenous RhoA (natural protein)
chain: not shown
  fold decrease of coprecipitated RhoA in DGKζ-null against wild-type cells: ~2.5 fold
